Experimental data published in the GPR68 mutational scans of Howard et al. (2025).
The least precise scores are not listed. The source holds two more conditions with little spread; they are left out. In variant names, del marks residues removed and ins residues inserted between the two positions. For part of these data: How much ogerin was present is not stated here.

B1: GPR68, Q15743 (parent)
chain: MGNITADNSSMSCTIDHTIHQTLAPVVYVTVLVVGFPANCLSLYFGYLQIKARNELGVYLCNLTVADLFYICSLPFWLQYVLQHDNWSHGDLSCQVCGILLYENIYISVGFLCCISVDRYLAVAHPFRFHQFRTLKAAVGVSVVIWAKELLTSIYFLMHEEVIEDENQHRVCFEHYPIQAWQRAINYYRFLVGFLFPICLLLASYQGILRAVRRSHGTQKSRKDQIQRLVLSTVVIFLACFLPYHVLLLVRSVWEASCDFAKGVFNAYHFSLLLTSFNCVADPVLYCFVSETTHRDLARLRGACLAFLTCSRTGRAREAYPLGAPEASGKSGAQGEEPELLTKLHPAFQTPNSPGSGGFPTGRLA

Tests used:
[1] = variants of: B1; assay: cAMP reporter score (Enrich2 score, wild type = 0); higher = more signal; HEK293T, FACS bins
[2] = variants of: B1; assay: surface expression score (Enrich2 score, wild type = 0); higher = more signal; HEK293T, FACS bins

| Variant | cAMP reporter score ([1]; pH 5.5) | cAMP reporter score ([1]; pH 6, modulator: ogerin) | cAMP reporter score ([1]; pH 6.5, modulator: ogerin) | surface expression score [2] | cAMP reporter score ([1]; pH 6) |
| --- | --- | --- | --- | --- | --- |
| MGNITADNSSMSCTIDHTIHQTLAPVVYVTVLVVGFPANCLSLYFGYLQIKARNELGVYLCNLTVADLFYICSLPFWLQYVLQHDNWSHGDLSCQVCGILLYENIYISVGFLCCISVDRYLAVAHPFRFHQFRTLKAAVGVSVVIWAKELLTSIYFLMHEEVIEDENQHRVCFEHYPIQAWQRAINYYRFLVGFLFPICLLLASYQGILRAVRRSHGTQKSRKDQIQRLVLSTVVIFLACFLPYHVLLLVRSVWEASCDFAKGVFNAYHFSLLLTSFNCVADPVLYCFVSETTHRDLARLRGACLAFLTCSRTGRAREAYPLGAPEASGVSGAQGEEPELLTKLHPAFQTPNSPGSGGFPTGRLA [K330V] | 0.337 | -0.293 | -0.34 | -0.128 |  |
| MGNITADNSSMSCTIDHTIHQTLAPVVYVTVLVVGFPANCLSLYFGYLQIKARNELGVYLCNLTVADLFYICSLPFWLQYVLQHDNWSHGDLSCQVCGILLYENIYISVGFLCCISVDRYLAVAHPFRFHQFRTLKAAVGVSVVIWAKELLTSIYFLMHEEVIEDENQHRVCFEHYPIQAWQRAINYYRFLVGFLFPICLLLASYQGILRAVRRSHGTQKSRKDQIQRLVLSTVVIFLACFLPYHVLLLVRSVWEASCDFAKGVFNAYHFSLLLTSFNCVADPVLYCFVSETTHRDLARLRGACLAFLTCSRTGRAREAYPLGAPEASGYSGAQGEEPELLTKLHPAFQTPNSPGSGGFPTGRLA [K330Y] | 0.44 |  | -0.424 | -1.01 |  |
| K330_G332del | 1.34 | 1.42 | 0.897 | 1.11 | 0.52 |
| K330_S331del | 1.05 | 0.618 | 0.725 | 0.309 |  |
| K330_S331insGSG | 0.198 | 0.175 | 0.308 | 0.555 | -0.117 |
| MGNITADNSSMSCTIDHTIHQTLAPVVYVTVLVVGFPANCLSLYFGYLQIKARNELGVYLCNLTVADLFYICSLPFWLQYVLQHDNWSHGDLSCQVCGILLYENIYISVGFLCCISVDRYLAVAHPFRFHQFRTLKAAVGVSVVIWAKELLTSIYFLMHEEVIEDENQHRVCFEHYPIQAWQRAINYYRFLVGFLFPICLLLASYQGILRAVRRSHGTQKSRKDQIQRLVLSTVVIFLACFLPYHVLLLVRSVWEASCDFAKGVFNAYHFSLLLTSFNCVADPVLYCFVSETTHRDLARLRGACLAFLTCSRTGRAREAYPLGAPEASGKAGAQGEEPELLTKLHPAFQTPNSPGSGGFPTGRLA [S331A] | 1.64 | 2.42 | 2.31 | 0.337 |  |
| MGNITADNSSMSCTIDHTIHQTLAPVVYVTVLVVGFPANCLSLYFGYLQIKARNELGVYLCNLTVADLFYICSLPFWLQYVLQHDNWSHGDLSCQVCGILLYENIYISVGFLCCISVDRYLAVAHPFRFHQFRTLKAAVGVSVVIWAKELLTSIYFLMHEEVIEDENQHRVCFEHYPIQAWQRAINYYRFLVGFLFPICLLLASYQGILRAVRRSHGTQKSRKDQIQRLVLSTVVIFLACFLPYHVLLLVRSVWEASCDFAKGVFNAYHFSLLLTSFNCVADPVLYCFVSETTHRDLARLRGACLAFLTCSRTGRAREAYPLGAPEASGKCGAQGEEPELLTKLHPAFQTPNSPGSGGFPTGRLA [S331C] | 0.89 | 0.376 | 0.324 | 0.458 | 0.573 |
